Measured values: the supplement of paper PMC10369915
This is one part of the list. Rule as the data show it: active = 3.2 or more and inactive = the rest. Most of these values are background signal.

target: SHP2 C-SH2 domain E139D; assay: enrichment score (SH2-bound / input frequency) (ratio); bacterial display of known human phosphotyrosine sites (pTyr-Var adds point mutants) read by sequencing; higher = stronger binding; tyrosines were phosphorylated by kinases first; conditions: peptide library: Human pTyr
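Also: displayed peptides selected on beads carrying the immobilized SH2 domain, with library peptides lacking any tyrosine serving as negative controls.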

Row | Binder | enrichment score
1 | DSLEHNAYNSIPGKE [SHC2_HUMAN_339_YA] | inactive: 0.658
2 | GDGSDHPYYNSIPSK [SHC3_HUMAN_341] | inactive: 0.829
3 | TEIINPNYMGVGPFG [SHIP1_HUMAN_915] | inactive: 0.513
4 | NSFNNPAYYVLEGVP [SHIP2_HUMAN_986] | inactive: 0.891
5 | EEEKEETYDDIDGFD [SKAP1_HUMAN_232] | inactive: 1.24
6 | EEPVNTVYSEVQFAD [SLAF5_HUMAN_316] | inactive: 2.14
7 | ESARNLEYVSVSPTN [SLAF6_HUMAN_274] | inactive: 1.02
8 | KGKFGNVYLAREKQS [AURKA_HUMAN_148] | inactive: 2.92
9 | EMPSEEGYQDAEPEA [SNCA_HUMAN_133_YA] | inactive: 1.25
10 | EDPPQEEYQEYEPEA [SNCB_HUMAN_127] | inactive: 1.39
11 | EKIWMTGYEDYRHAP [SPRE2_HUMAN_228] | inactive: 0.882
12 | EKIWMTGYEDARHAP [SPRE2_HUMAN_228_YA] | inactive: 0.691
13 | SETPGYIYSSNFHAV [SRBS1_HUMAN_654] | inactive: 1.33
14 | YTTQLDDYLGGSPVQ [AVIL_HUMAN_85] | inactive: 0.592
15 | DEARNVFYELEDVRD [SRCN1_HUMAN_113] | inactive: 1.15
16 | CRTSGSVYITLKKYD [SRP14_HUMAN_27] | inactive: 1.73
17 | STPPGESYFGVSSLQ [SRRM2_HUMAN_1049] | inactive: 0.696
18 | YGAGRGNYDAFRGQG [SRRT_HUMAN_836] | inactive: 0.886

target: SHP2 C-SH2 domain wild-type; assay: as above; conditions: peptide library: Human pTyr

Row | Binder | enrichment score
19 | DSLEHNAYNSIPGKE [SHC2_HUMAN_339_YA] | inactive: 0.537
20 | GDGSDHPYYNSIPSK [SHC3_HUMAN_341] | inactive: 0.644
21 | TEIINPNYMGVGPFG [SHIP1_HUMAN_915] | inactive: 0.443
22 | NSFNNPAYYVLEGVP [SHIP2_HUMAN_986] | inactive: 0.696
23 | EEEKEETYDDIDGFD [SKAP1_HUMAN_232] | inactive: 1.02
24 | EEPVNTVYSEVQFAD [SLAF5_HUMAN_316] | active: 4.29
25 | ESARNLEYVSVSPTN [SLAF6_HUMAN_274] | inactive: 0.534
26 | KGKFGNVYLAREKQS [AURKA_HUMAN_148] | inactive: 2.96
27 | EMPSEEGYQDAEPEA [SNCA_HUMAN_133_YA] | inactive: 1.1
28 | EDPPQEEYQEYEPEA [SNCB_HUMAN_127] | inactive: 1.29
29 | EKIWMTGYEDYRHAP [SPRE2_HUMAN_228] | inactive: 0.774
30 | EKIWMTGYEDARHAP [SPRE2_HUMAN_228_YA] | inactive: 0.618
31 | SETPGYIYSSNFHAV [SRBS1_HUMAN_654] | inactive: 1.3
32 | YTTQLDDYLGGSPVQ [AVIL_HUMAN_85] | inactive: 0.591
33 | DEARNVFYELEDVRD [SRCN1_HUMAN_113] | inactive: 1.1
34 | CRTSGSVYITLKKYD [SRP14_HUMAN_27] | inactive: 1.36
35 | STPPGESYFGVSSLQ [SRRM2_HUMAN_1049] | inactive: 0.538
36 | YGAGRGNYDAFRGQG [SRRT_HUMAN_836] | inactive: 0.707

target: SHP2 N-SH2 domain L43F; assay: as above; conditions: peptide library: Human pTyr

Row | Binder | enrichment score
37 | DSLEHNAYNSIPGKE [SHC2_HUMAN_339_YA] | inactive: 0.602
38 | GDGSDHPYYNSIPSK [SHC3_HUMAN_341] | inactive: 0.564
39 | TEIINPNYMGVGPFG [SHIP1_HUMAN_915] | inactive: 0.541
40 | NSFNNPAYYVLEGVP [SHIP2_HUMAN_986] | inactive: 0.727
41 | EEEKEETYDDIDGFD [SKAP1_HUMAN_232] | inactive: 1.06
42 | EEPVNTVYSEVQFAD [SLAF5_HUMAN_316] | inactive: 2.55
43 | ESARNLEYVSVSPTN [SLAF6_HUMAN_274] | inactive: 0.671
44 | KGKFGNVYLAREKQS [AURKA_HUMAN_148] | inactive: 2.53
45 | EMPSEEGYQDAEPEA [SNCA_HUMAN_133_YA] | inactive: 1.12
46 | EDPPQEEYQEYEPEA [SNCB_HUMAN_127] | inactive: 1.39
47 | EKIWMTGYEDYRHAP [SPRE2_HUMAN_228] | inactive: 0.687
48 | EKIWMTGYEDARHAP [SPRE2_HUMAN_228_YA] | inactive: 0.63
49 | SETPGYIYSSNFHAV [SRBS1_HUMAN_654] | inactive: 1.12
50 | YTTQLDDYLGGSPVQ [AVIL_HUMAN_85] | inactive: 0.61
51 | DEARNVFYELEDVRD [SRCN1_HUMAN_113] | inactive: 1.08
52 | CRTSGSVYITLKKYD [SRP14_HUMAN_27] | inactive: 1.43
53 | STPPGESYFGVSSLQ [SRRM2_HUMAN_1049] | inactive: 0.667
54 | YGAGRGNYDAFRGQG [SRRT_HUMAN_836] | inactive: 0.76

target: SHP2 N-SH2 domain T42A; assay: as above; conditions: peptide library: Human pTyr

Row | Binder | enrichment score
55 | DSLEHNAYNSIPGKE [SHC2_HUMAN_339_YA] | inactive: 0.667
56 | GDGSDHPYYNSIPSK [SHC3_HUMAN_341] | inactive: 0.555
57 | TEIINPNYMGVGPFG [SHIP1_HUMAN_915] | inactive: 0.637
58 | NSFNNPAYYVLEGVP [SHIP2_HUMAN_986] | inactive: 0.494
59 | EEEKEETYDDIDGFD [SKAP1_HUMAN_232] | inactive: 0.958
60 | EEPVNTVYSEVQFAD [SLAF5_HUMAN_316] | active: 3.22
61 | ESARNLEYVSVSPTN [SLAF6_HUMAN_274] | inactive: 0.724
62 | KGKFGNVYLAREKQS [AURKA_HUMAN_148] | inactive: 2.44
63 | EMPSEEGYQDAEPEA [SNCA_HUMAN_133_YA] | inactive: 0.964
64 | EDPPQEEYQEYEPEA [SNCB_HUMAN_127] | inactive: 1.16
65 | EKIWMTGYEDYRHAP [SPRE2_HUMAN_228] | inactive: 0.722
66 | EKIWMTGYEDARHAP [SPRE2_HUMAN_228_YA] | inactive: 0.675
67 | SETPGYIYSSNFHAV [SRBS1_HUMAN_654] | inactive: 0.955
68 | YTTQLDDYLGGSPVQ [AVIL_HUMAN_85] | inactive: 0.425
69 | DEARNVFYELEDVRD [SRCN1_HUMAN_113] | inactive: 1.09
70 | CRTSGSVYITLKKYD [SRP14_HUMAN_27] | inactive: 1.25
71 | STPPGESYFGVSSLQ [SRRM2_HUMAN_1049] | inactive: 0.551
72 | YGAGRGNYDAFRGQG [SRRT_HUMAN_836] | inactive: 0.944

target: SHP2 N-SH2 domain T52S; assay: as above; conditions: peptide library: Human pTyr

Row | Binder | enrichment score
73 | DSLEHNAYNSIPGKE [SHC2_HUMAN_339_YA] | inactive: 0.695
74 | GDGSDHPYYNSIPSK [SHC3_HUMAN_341] | inactive: 0.775
75 | TEIINPNYMGVGPFG [SHIP1_HUMAN_915] | inactive: 0.461
76 | NSFNNPAYYVLEGVP [SHIP2_HUMAN_986] | inactive: 0.596
77 | EEEKEETYDDIDGFD [SKAP1_HUMAN_232] | inactive: 1.06
78 | EEPVNTVYSEVQFAD [SLAF5_HUMAN_316] | inactive: 1.99
79 | ESARNLEYVSVSPTN [SLAF6_HUMAN_274] | inactive: 0.755
80 | KGKFGNVYLAREKQS [AURKA_HUMAN_148] | inactive: 3.12
81 | EMPSEEGYQDAEPEA [SNCA_HUMAN_133_YA] | inactive: 1.01
82 | EDPPQEEYQEYEPEA [SNCB_HUMAN_127] | inactive: 1.38
83 | EKIWMTGYEDYRHAP [SPRE2_HUMAN_228] | inactive: 0.731
84 | EKIWMTGYEDARHAP [SPRE2_HUMAN_228_YA] | inactive: 0.603
85 | SETPGYIYSSNFHAV [SRBS1_HUMAN_654] | inactive: 1.34
86 | YTTQLDDYLGGSPVQ [AVIL_HUMAN_85] | inactive: 0.38
87 | DEARNVFYELEDVRD [SRCN1_HUMAN_113] | inactive: 1.13
88 | CRTSGSVYITLKKYD [SRP14_HUMAN_27] | inactive: 1.9
89 | STPPGESYFGVSSLQ [SRRM2_HUMAN_1049] | inactive: 0.619
90 | YGAGRGNYDAFRGQG [SRRT_HUMAN_836] | inactive: 0.936

target: SHP2 N-SH2 domain wild-type; assay: as above; conditions: peptide library: Human pTyr

Row | Binder | enrichment score
91 | DSLEHNAYNSIPGKE [SHC2_HUMAN_339_YA] | inactive: 0.629
92 | GDGSDHPYYNSIPSK [SHC3_HUMAN_341] | inactive: 0.666
93 | TEIINPNYMGVGPFG [SHIP1_HUMAN_915] | inactive: 0.485
94 | NSFNNPAYYVLEGVP [SHIP2_HUMAN_986] | inactive: 0.577
95 | EEEKEETYDDIDGFD [SKAP1_HUMAN_232] | inactive: 1.42
96 | EEPVNTVYSEVQFAD [SLAF5_HUMAN_316] | inactive: 1.15
97 | ESARNLEYVSVSPTN [SLAF6_HUMAN_274] | inactive: 0.458
98 | KGKFGNVYLAREKQS [AURKA_HUMAN_148] | active: 4.15
99 | EMPSEEGYQDAEPEA [SNCA_HUMAN_133_YA] | inactive: 1.24
100 | EDPPQEEYQEYEPEA [SNCB_HUMAN_127] | inactive: 1.41
101 | EKIWMTGYEDYRHAP [SPRE2_HUMAN_228] | inactive: 0.734
102 | EKIWMTGYEDARHAP [SPRE2_HUMAN_228_YA] | inactive: 0.576
103 | SETPGYIYSSNFHAV [SRBS1_HUMAN_654] | inactive: 1.07
104 | YTTQLDDYLGGSPVQ [AVIL_HUMAN_85] | inactive: 0.642
105 | DEARNVFYELEDVRD [SRCN1_HUMAN_113] | inactive: 1.17
106 | CRTSGSVYITLKKYD [SRP14_HUMAN_27] | inactive: 2.27
107 | STPPGESYFGVSSLQ [SRRM2_HUMAN_1049] | inactive: 0.579
108 | YGAGRGNYDAFRGQG [SRRT_HUMAN_836] | inactive: 0.848
